# Measured values reported in PubChem BioAssay AID493208 (National Center for Advancing Translational Sciences (NCATS), 2011).
# Out of some 44,000 compounds screened, about 340 (0.77%) were called active. Roughly 5% stayed inconclusive and do not appear here. Calls come from the whole dose curve; as a rule, active = well fitted inhibition curve with a large enough effect; inconclusive = small, poorly fitted or top-dose-only effect; inactive = flat fitted curve, though single readings scatter. The list shows a part of the results.
# Test: Acumen qHTS Assay for Inhibitors of the mTORC1 Signaling Pathway in MEF (Tsc2-/-, p53-/-) Cells: Sytravon; note: nearly all actives have a fitted effect of over 50% in size;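 for activity change, negative = inhibition: plate controls were DMSO for no effect and rapamycin for full effect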
# Conditions: phospho-rpS6 immunofluorescence/PI, 24 h; series mostly up to 38.3 µM; activity change, negative = inhibition: at the top concentration
# Summary of the method: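 Tsc2-/-, p53-/- mouse embryonic fibroblasts (empty-vector line) exposed to compound 24 hrs at 37 C, fixed, immunostained for phospho-rpS6 and counterstained with propidium iodide. Acumen laser scanning gives % positive cells from Alexa 488/PI ratio, thresholded using 7.5 nM rapamycin; PI count gives viability.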
# Potency is the fitted concentration of half-maximal effect.
SMILES,"activity change, negative = inhibition",Potency
O=S(=O)(NCCS(=O)(=O)N1CCN(c2ccccc2F)CC1)c1ccc(Cl)cc1,inactive: 0.725%,
COc1ccc(N2CCN(C(=O)CCn3c(=O)c4cccn4c4cccnc43)CC2)cc1,inactive: 3.15%,
CCOC(=O)c1ccc(NC(=O)c2ncn(-c3ccccc3)n2)cc1,inactive: 8.01%,
CCN(CC)c1ccc(C(=O)N2CCC(c3c[nH]c4ccccc34)(c3c[nH]c4ccccc34)CC2)cc1,inactive: -4.28%,
O=C(NC1CCN(Cc2ccccc2)CC1)c1ccc(Cn2c(=O)c3ccccc3n(Cc3ccccc3)c2=O)cc1,inactive: -7.53%,
Cc1ccc(-c2nc(-c3cc4cccc(OCc5cccc(C)c5)c4oc3=O)no2)cc1,inactive: -1.75%,
Cc1ccc(NC(=O)/C(C#N)=C/c2cc(C)n(-c3ccc(F)cc3)c2C)cc1C,inactive: 3.75%,
CCc1ccc(NC(=O)Cn2c3ncccc3c(=O)n2-c2ccc(C)c(C)c2)cc1,inactive: 0%,
O=C(c1ccc2c(c1)N(Cc1ccccc1F)C(=O)c1ccccc1S2=O)N1CCN(c2ccccc2)CC1 (stereo not drawn),inactive: -3.84%,
Cc1ccc(CNC(=O)c2ccc(-n3cnc4cccnc43)cc2)cc1,inactive: -0.101%,
O=C(NCCc1csc(-c2cccc(F)c2)n1)c1cccs1,inactive: -12.7%,
O=C(Cc1ccccc1)Nc1sc2c(c1C(=O)Nc1ccc(Cl)cc1)CCCC2,inactive: -1.52%,
N#C/C(=C\c1ccc(Cl)cc1)c1nc2ccccc2[nH]1,inactive: 22.3%,
Cc1cccc(NC(=O)CSc2nc3c([nH]c4ccccc43)c(=O)n2C)c1C,inactive: -4.18%,
CCOc1ccc(NC(=O)c2ccc(-c3nc(COc4ccccc4)c(C)o3)cc2)cc1,inactive: 0.636%,
COc1ccccc1CNC(=O)Cn1ncc2c3ccccc3n(Cc3ccccc3C)c2c1=O,inactive: 2.6%,
CC(NC(=O)Nc1ccccc1C(F)(F)F)c1c(-n2cccc2)sc2c1CCCC2 (stereo not drawn),inactive: 1.94%,
COc1ccccc1NC(=O)CSc1oc(-c2cccs2)nc1S(=O)(=O)c1ccc(Br)cc1,inactive: -12.9%,
CCOC(=O)c1ccc(NS(=O)(=O)c2ccc(Br)s2)cc1,inactive: 2.32%,
CN(C(=O)CSc1nc2c(c(=O)[nH]1)CCCC2)c1ccccc1,inactive: 6.13%,
CCOc1ccc(S(=O)(=O)N2CCN(c3c(C)cccc3C)CC2)c2ccccc12,inactive: -1.75%,
CCOc1ccccc1NC(=O)C1CCN(S(=O)(=O)c2ccccc2)CC1,inactive: 3.31%,
Cc1cc(C)cc(OC(=O)c2snnc2C)c1,inactive: -10.5%,
COc1cc(NC(=O)Cn2ncc3c([nH]c4ccc(C)cc43)c2=O)cc(OC)c1OC,inactive: -1.53%,

SMILES,"activity change, negative = inhibition",Potency
COc1cc(C(=O)Nc2ccc3oc(-c4ccccc4)nc3c2)cc(OC)c1OC,inactive: 7.82%,
O=C1Nc2ccc(S(=O)(=O)Nc3ccccc3O)c3cccc1c23,inactive: -13.3%,
Cn1c2ccccc2c2c(C(=O)N3CCN(c4ccc(F)cc4)CC3)cn(C3CCCCC3)c(=O)c21,inactive: 0.652%,
COc1cc(Cl)c(C)cc1NC(=O)CSc1ncc(S(=O)(=O)c2ccc(C(C)(C)C)cc2)c(=O)[nH]1,inactive: 1.73%,
COc1ccc(NC(=O)CSc2nnc(-c3cccs3)o2)cc1,inactive: -7.95%,
CCOc1ccccc1Nc1cc(-c2ccccc2)nc(C)n1,inactive: -5.26%,
CC(C)CCN(Cc1ccco1)C(=O)c1cc2c(Cl)nc3ccccc3c2s1,inactive: -0.015%,
Cc1ccc(S(=O)(=O)CC(=O)Nc2sc3c(c2C#N)CCCCC3)cc1,inactive: -6.04%,
COc1ccc(-c2noc(CSCC(=O)Nc3cccc(C(F)(F)F)c3)n2)cc1OC,inactive: -10.7%,
CCOc1ccc(C2Nc3ccccc3-c3nnc(SCc4ccccc4)nc3O2)cc1OC (stereo not drawn),inactive: -14.1%,
CCCOc1ccc(-c2nn(-c3ccccc3)cc2C2NC(=O)NC(C)=C2C(=O)OC)cc1C (stereo not drawn),inactive: 0.0374%,
CCc1cccc(NC(=O)c2ccc(CN3C(=O)C(C)=C(c4ccc(OC)cc4)S3(=O)=O)cc2)c1,inactive: -9.64%,
CCC(=O)N1CCc2cc(Br)cc(S(=O)(=O)CCC(=O)NCCc3ccc(Cl)cc3)c21,inactive: -1.43%,
CCOc1ccccc1NC(=O)Nc1nnc(N2CCCCCC2)s1,inactive: 1.77%,
Cc1ccccc1CNC(=O)C1CCCN(S(=O)(=O)N(C)c2ccc(F)cc2)C1 (stereo not drawn),inactive: -2.36%,
CC(=O)Nc1ccc(NC(=O)CCNS(=O)(=O)c2cccc3nsnc23)cc1,inactive: -2.71%,
COc1cccc(NC(=O)Cn2cc(S(=O)(=O)N3CCCC3)c(S(=O)(=O)N3CCCC3)c2)c1,inactive: -16.2%,
CCOc1ccccc1CNC(=O)c1cc2cc(S(=O)(=O)N3CCCCC3)ccc2n1C,inactive: 2.93%,
Cc1ccccc1CNC(=O)Cn1ncn2nc(-c3cccs3)cc2c1=O,inactive: 1.82%,
Cc1cccc(CSc2cn(CC(=O)N3CCCC3)c3ccccc23)c1,inactive: -2.9%,
CCC(Oc1ccccc1)C(=O)Nc1ccc2oc(-c3ccc(OC)cc3)nc2c1 (stereo not drawn),inactive: 2.15%,
O=C(COc1ccc(S(=O)(=O)NC2CCCCC2)cc1)Nc1ccc(C(F)(F)F)cc1,inactive: 1.37%,
Cc1cc(N2CCCCC2)nc2ccc(NC(=O)/C=C/c3ccccc3OC(C)C)cc12,,active: 16.5 µM
Cc1ccc(CNC(=O)CSCc2ccc(F)cc2)cc1,inactive: 12.9%,
